# Measured values: PubChem BioAssay AID2107 (National Center for Advancing Translational Sciences (NCATS), 2009)
# The campaign covered roughly 240,000 compounds. About 20 (0.008%) were called active. The shares of active, inactive and inconclusive entries below differ from those in the screen. Calls come from the whole dose curve; as a rule, active = well fitted inhibition curve with a large enough effect; inconclusive = small, poorly fitted or top-dose-only effect, or effect the other way; inactive = flat fitted curve, though single readings scatter. No potency is given beside an inconclusive call; the fits are too rough.
# Target: Alpha-galactosidase A (Homo sapiens) (UniProt P06280)
# Assay: qHTS Assay for Inhibitors and Activators of Human alpha-Galactosidase From Spleen Homogenate
# Conditions: 4MU-alpha-Gal fluorescence, 40 min; series mostly up to 80 µM
# How it was run: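 Spleen homogenate 1 ug + cpd (titration) + 4-MU-alpha-D-galactopyranoside 1 mM; 37C 40 min; 50 mM citrate/phosphate pH 5.0, 0.01% Tween-20; stop pH 10; fluorescence 365/440; AC50 via Hill.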
# Potency is the fitted concentration of half-maximal effect; tags give direction and shape of the fitted curve.
# UniProt P06280, sequence (P06280 whole entry, looked up): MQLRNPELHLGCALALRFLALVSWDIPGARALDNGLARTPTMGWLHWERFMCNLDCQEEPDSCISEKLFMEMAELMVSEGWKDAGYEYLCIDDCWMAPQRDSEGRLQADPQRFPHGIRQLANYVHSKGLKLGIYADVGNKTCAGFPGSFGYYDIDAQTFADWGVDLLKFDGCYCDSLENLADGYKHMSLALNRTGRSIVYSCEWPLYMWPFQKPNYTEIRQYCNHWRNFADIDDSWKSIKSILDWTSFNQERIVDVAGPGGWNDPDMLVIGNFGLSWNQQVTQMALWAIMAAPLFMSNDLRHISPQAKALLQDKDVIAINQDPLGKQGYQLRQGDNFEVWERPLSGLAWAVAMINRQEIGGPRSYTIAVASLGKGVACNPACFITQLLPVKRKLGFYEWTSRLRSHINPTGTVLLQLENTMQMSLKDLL
row,SMILES,Potency
1,Cc1ccc(O)c(-c2cc(C(=O)Nc3cccnc3)[nH]n2)c1,inactive
2,COC(=O)c1c(N)n(-c2ccc(NC(C)=O)cc2)c2nc3ccccc3nc12,"inconclusive [activator, partial curve]"
3,COCCCn1c2nc3ccccc3nc2c2c(=O)n(-c3ccccc3OC)cnc21,inactive
4,Cc1cc(=O)oc2cc(O)ccc12,"inconclusive [activator, single point]"
5,COc1ncc2nc(C)c(=O)n(C3CC3)c2n1,"inconclusive [inhibitor, single point]"
6,Cn1c(SCc2ccc(Cl)cc2)nnc1C1CC1,"inconclusive [activator, single point]"
7,Cc1ccc(CNc2oc(-c3cccs3)nc2C#N)cc1,"inconclusive [activator, single point]"
8,CC(C)Cn1c(N)c(C(=O)NCC2CCCO2)c2nc3ccccc3nc21 (stereo unspecified),"inconclusive [activator, single point]"
9,COc1ccc(C(OCCN2CCC[C@H](C(=O)O)C2)(c2ccc(OC)cc2)c2ccc(OC)cc2)cc1,inactive
10,O=C(O)CCC(=O)c1ccc2ccc3cccc4ccc1c2c34,"inconclusive [activator, single point]"
11,C=CCn1c(C)cc(C(=O)CSc2n[nH]c(N)n2)c1C,"inconclusive [inhibitor, partial curve, poor fit]"
12,O=Cc1nc(-c2ccccc2Cl)n2ccccc12,"inconclusive [activator, partial curve]"
13,CN(C)c1ccc(C(=O)c2ccccc2C(=O)O)cc1[N+](=O)[O-],"inconclusive [inhibitor, single point]"
14,CCOCC(=O)Nc1ccc(F)c(F)c1,inactive
15,O=Cc1ccc(CO)o1,inactive
16,COCCn1c(=O)[nH]c(=O)c2c(C(F)(F)F)cc(-c3cccs3)nc21,"inconclusive [activator, partial curve]"
17,Cc1nc(NCCNC(=O)c2ccco2)c2c(C)c(C)sc2n1,inactive
18,Cc1cc(C)nc(-n2nc(C)c(C3(O)C(=O)Nc4ccccc43)c2N)n1 (stereo unspecified),"inconclusive [activator, single point]"
19,CC1(C)CC(=O)c2cc(OCC(=O)NCCN3CCOCC3)ccc2O1,"inconclusive [activator, partial curve]"
20,Cc1ccc(-c2nc(NC(=O)c3nn(C)cc3[N+](=O)[O-])sc2C)cc1C,inactive
21,Cc1cccc(C2=NN(c3ccccc3)[C@H](CO)[C@H]2c2ccc(F)cc2)c1,"inconclusive [activator, partial curve]"
22,CCN1CCN(C(=O)CCCCCn2c(=O)[nH]c3cc(C(=O)OC)ccc3c2=O)CC1,"inconclusive [activator, single point]"
23,CCn1c(=N)c(C(=O)NCc2cccnc2)cc2c(=O)n3cccc(C)c3nc21,"inconclusive [activator, partial curve]"

row,SMILES,Potency
1,CCN(CC)c1ccc2c(Cl)c(Br)c(=O)oc2c1,"inconclusive [activator, partial curve]"
2,CN(CCC#N)C(=O)COC(=O)c1cc(Cl)cc(Cl)c1N,"inconclusive [activator, single point]"
3,COC(=O)c1ccsc1NC(=O)CSc1nnnn1-c1ccccc1SC,inactive
4,O=C(NCc1cccs1)C1CCN(C(=O)NCc2ccccc2)CC1,"inconclusive [inhibitor, single point]"
5,CNC(=O)Cn1nc(-c2ccc(C)c(S(=O)(=O)N(C)C)c2)c2ccccc2c1=O,"inconclusive [inhibitor, single point]"
6,OC[C@@H]1O[C@H](O)[C@H](O)[C@@H](O)[C@@H]1O,inactive
7,Cc1cc2ccc(=O)oc2cc1OC[C@@H](O)C(C)(C)O,"inconclusive [activator, partial curve]"
8,Cc1ccc(-c2nnc(-c3ccccc3)c(-c3ccccc3)n2)cc1,inactive
9,O=Cc1c(NCc2ccco2)nc2ccccn2c1=O,inactive
10,CC(=O)c1cc(C#N)c(SCC(=O)OC(C)(C)C)nc1C,"inconclusive [activator, full curve, poor fit]"
11,COc1ccc(-c2cn3cccnc3n2)cc1F,"inconclusive [activator, partial curve]"
12,COc1cc(Cl)c(C)cc1NC(=O)COC(=O)c1cc[n+]([O-])cc1,inactive
13,CCC(C)NC(=O)CCC(=O)Nc1ccc2nc(N3CCOCC3)cc(C)c2c1 (stereo unspecified),"inconclusive [activator, full curve]"
14,N#Cc1cc2c(=O)n3ccccc3nc2n(-c2ccc(Cl)cc2)c1=O,"inconclusive [activator, partial curve]"
15,COC(=O)c1ccc(-c2cc(C(=O)O)c3cc4c(cc3n2)OCCO4)cc1,"inconclusive [activator, single point]"
16,CCOC(=O)/C(=C/c1ccccc1)NC(=O)c1ccco1,inactive
17,CCOC(=O)c1cnc2sc3c(n2c1=O)CCCC3,"inconclusive [activator, partial curve]"
18,Cc1[nH]n(-c2ccccc2)c(=O)c1C(C[N+](=O)[O-])c1ccc(Cl)cc1 (stereo unspecified),inactive
19,CCOC(=O)CC1C(=O)NCCN1C(=O)c1cc2c(=O)n3cccc(C)c3nc2s1 (stereo unspecified),"inconclusive [activator, partial curve]"
20,CCC1(CC)Cc2ccccc2-c2nc(NCCO)[nH]c(=O)c21,"inconclusive [activator, partial curve]"
21,CCOCC(=O)Nc1ccc(-c2cn3cccnc3n2)cc1,"inconclusive [activator, partial curve]"
22,CCCc1nc(-c2cc3ccc(C)cc3[nH]c2=O)no1,"inconclusive [activator, partial curve]"
23,CCCc1c(OCCCCc2nn[nH]n2)ccc(C(C)=O)c1O,"inconclusive [inhibitor, full curve, poor fit]"
